Here are results for 44 sequences from the supplement of paper PMC11417369.

The list shows a part of the results.

This experiment has as its system PfAP2-HC AP2 domain (GST-tagged). Description: gcPBM binding intensity (ln(normalized median fluorescence intensity)); higher = stronger DNA binding. The method in brief: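 Using an Agilent 4 × 180k array, primer-extended double-stranded 36-bp intergenic genomic probes and negative controls were exposed for 1 h to GST-fused P. falciparum DNA-binding domains expressed in E. coli. Binding was carried out in 1× PBS with 1% milk, 0.2 mg/ml BSA, 0.5% salmon testes DNA and 0.03% Triton X-100, and protein was detected with Alexa488 anti-GST antibody and a 488 nm scan. Binding intensity is the highest Masliner-normalised natural-log median intensity across replicate spots of either probe orientation.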
Take “TATACGGACTCTAAGTGTACTTAAAATAATTCAAAC [XGTACX_site3606]”: the “gcPBM binding intensity (ln)” value came to 9.46.

For “ATTTTTATACCTAAGTGTACATGATGTTTTCTTTTT [XGTACX_site973]”, the “gcPBM binding intensity (ln)” value amounted to 9.86.

Turning to “TATATTGCCCTTCACACACACACATATATATATATA [CACACA_site2492]”, the “gcPBM binding intensity (ln)” value turned out to be 10.8.

Regarding “TAAAAATGTTGACACACACACATAAATATATTTTAT [CACACA_site7227]”, the “gcPBM binding intensity (ln)” value amounted to 10.1.

For the sequence “TATTATATAATAAAAATTATTATTATTTGTATAAAT [CACACA_negctrl_site195]”, the “gcPBM binding intensity (ln)” value came out at 9.34.

Consider “TGTTTCCTATTTTGTATGCACTTTTTGTCATAATTA [GTGCAC_site9921]”, for which the “gcPBM binding intensity (ln)” value amounted to 9.97.

As for “TAAATAAATAAAAAAACACACATATAAATATAAATA [CACACA_site7815]”, the “gcPBM binding intensity (ln)” value stood at 9.93.

“TAAACAGACATACATACACACATACATACAGACATA [CACACA_site6997]”: the “gcPBM binding intensity (ln)” value turned out to be 10.6.

Consider “AAAAAAAAAGTATATATATATTTAAGGAATTCTCTC [GTGCAC_negctrl_site454]”, for which the “gcPBM binding intensity (ln)” value worked out at 9.56.

On to “CATATACTCGGACACACACACACACCGACAAAAAAA [CACACA_site4433]”, for which the “gcPBM binding intensity (ln)” value was 11.1.

With “TTTATAGTTTTTAATAGTACACATATTTTTAAGTAT [XGTACX_site5498]”, the “gcPBM binding intensity (ln)” value turned out to be 9.73.

For the sequence “TTTTGTGGAGGATGGTGTACGGTATTGTATTATTAC [XGTACX_site1942]”, the “gcPBM binding intensity (ln)” value was determined as 10.3.

Take “TATCATAAAATATGTAGTACGTATATATATAAAAAT [XGTACX_site5455]”: the “gcPBM binding intensity (ln)” value turned out to be 9.88.

As to “AATATATAGCTAAAAACACACAAATATATACTCATA [CACACA_site5904]”, the “gcPBM binding intensity (ln)” value worked out at 9.93.

For the sequence “ATACATTTTTTTTTCACACATATATATATATTTAAT [CACACA_site5995]”, the “gcPBM binding intensity (ln)” value was found to be 9.87.

As for “CTCACGTAGCTTGATGCATGCAAACTTGAGTAAAAG [TGCATGCA_site409]”, the “gcPBM binding intensity (ln)” value is 9.47.

In the case of “TTTATAAAATTTATTGCACACAATTATTTTATAATT [CACACA_site2489]”, the “gcPBM binding intensity (ln)” value turned out to be 9.96.

As to CAACCTTTTTTGTTGGTGCATAATTTTTTTTTCTTT, the “gcPBM binding intensity (ln)” value stood at 9.5.

As for “ATATATATATATTGCACACATATAAATATATATATT [CACACA_site807]”, the “gcPBM binding intensity (ln)” value was determined as 9.76.

In the case of “TTTTATTTTTTCTCACGTACAAATATATAATTTTTT [XGTACX_site6952]”, the “gcPBM binding intensity (ln)” value is 9.6.

Consider “TACATATGGCACATATGTACACACGTATAGATAATA [XGTACX_site4123]”, for which the “gcPBM binding intensity (ln)” value worked out at 9.75.

For “ATGAATATAAAATATACACACTTATATATCGAATGA [CACACA_site6240]”, the “gcPBM binding intensity (ln)” value worked out at 9.72.

For “AATATATCCTATTCGAACAAAAATACATGCACATAT [CACACA_negctrl_site1058]”, the “gcPBM binding intensity (ln)” value came to 9.65.

For “GTATATATATATATATGTACATATATGTAGATATAT [XGTACX_site5431]”, the “gcPBM binding intensity (ln)” value turned out to be 9.91.

For “ATATGTACGCAAGGTGCACACTGGTGCATTAAAAAA [CACACA_site1801]”, the “gcPBM binding intensity (ln)” value was found to be 9.91.

As for “TTTTTGTATCCTTCTTCTTTTTCCAGACTACATTAT [XGTACX_negctrl_site216]”, the “gcPBM binding intensity (ln)” value turned out to be 9.71.

On to “AAAAAAAAAATGTGCACACGCGTACACCCAAAAAAA [CACACA_site5149]”, for which the “gcPBM binding intensity (ln)” value was found to be 9.86.

Turning to “TATAAAAATAATATTACACACATGTAAAATGGCTGT [CACACA_site5755]”, the “gcPBM binding intensity (ln)” value worked out at 9.8.

Turning to “TCTCAGTAAATTAAATGTACATAAGGGAGGAACTAT [XGTACX_site8045]”, the “gcPBM binding intensity (ln)” value was found to be 9.69.

Take “TTGTGGATTTTGTGCGCACACACATGCAAAAAGAAA [CACACA_site1147]”: the “gcPBM binding intensity (ln)” value came to 10.

For the sequence “TAAATATATGCATATACACACAACAAAAAAATATAT [CACACA_site2341]”, the “gcPBM binding intensity (ln)” value worked out at 10.1.

For “CACAGACATATATATACACACTTTTATTTAAATAAC [CACACA_site4962]”, the “gcPBM binding intensity (ln)” value is 9.81.

With “AACATATAAATAAACTGTACATATATATATATATAT [XGTACX_site1056]”, the “gcPBM binding intensity (ln)” value came to 9.68.

With “AATATTACGTGTTTGGTATTTTTCGATGTTGGCAGG [XGTACX_negctrl_site59]”, the “gcPBM binding intensity (ln)” value was found to be 9.71.

Take “ATATTATTTTAAAAAAGTACATTTTTAAGAATTCTT [XGTACX_site6630]”: the “gcPBM binding intensity (ln)” value worked out at 9.37.

For “ATAAAATTTATATAAGCACACAAATATATATTTATA [CACACA_site9083]”, the “gcPBM binding intensity (ln)” value came out at 9.7.

For the sequence “GTAAAGGCTATATATGTGCACATTTTTTTTTTTTTT [GTGCAC_site9925]”, the “gcPBM binding intensity (ln)” value was 9.86.

“AATTGCATAATATATTCACACATTTTTAAGTGATAC [CACACA_site5679]”: the “gcPBM binding intensity (ln)” value was 9.62.

For “TTATGGTTATACATATGTACATATATATATATATAT [XGTACX_site1494]”, the “gcPBM binding intensity (ln)” value came to 9.77.

As for “TATCATTATGTAGAAACACACATAAGCTTCGGTTCA [CACACA_site2766]”, the “gcPBM binding intensity (ln)” value was found to be 9.58.

For the sequence “GGGGAAAAAAAAAAAGGAAAAAGAAAAAAAAAAAAA [GTGCAC_negctrl_site489]”, the “gcPBM binding intensity (ln)” value worked out at 8.87.

Take “TTAATTATATATAAAAGTACTTATTTTTCCATATAA [XGTACX_site3033]”: the “gcPBM binding intensity (ln)” value was 9.31.

In the case of “TAATAGGAAATTATAGGTACACATACAAATAAATAA [XGTACX_site3587]”, the “gcPBM binding intensity (ln)” value came out at 9.83.

“AATAATAATATATGTAGTACACATTTCCATTATGTT [XGTACX_site3708]”: the “gcPBM binding intensity (ln)” value is 9.71.
